# Laboratory results reported in the supplement of paper PMC8728848.
# The other results are listed elsewhere or left out.
# Columns and labels:
# Experiment in all cases: glycan array binding signal (z-score within array); higher = stronger binding
# Details in all cases: glycan notation: IUPAC condensed, linker removed
# Gal(a1-3)Gal = biological target: Gal(a1-3)Gal
# Summary of the method: (§1)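 The binding signal is a Z-score computed within each array and averaged over linkers. Arrays of the same protein sequence at different concentrations or buffers were also averaged together. Data originate from 3228 arrays in the Consortium for Functional Glycomics database, kept only where the protein sequence was available.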
# Gal(a1-3)Gal(b1-3)GlcNAc = biological target: Gal(a1-3)Gal(b1-3)GlcNAc
# Summary of the method: as §1
# [1] = biological target: Gal(a1-3)Gal(b1-3)GlcNAc(b1-2)Man
# Summary of the method: as §1
# [2] = biological target: Gal(a1-3)Gal(b1-3)GlcNAc(b1-2)Man(a1-3)[Gal(a1-3)Gal(b1-3)GlcNAc(b1-2)Man(a1-6)]Man(b1-4)GlcNAc(b1-4)GlcNAc
# Summary of the method: as §1
# [3] = biological target: Gal(a1-3)Gal(b1-3)GlcNAc(b1-3)GalNAc
# Summary of the method: as §1
# [4] = biological target: Gal(a1-3)Gal(b1-3)GlcNAc(b1-6)GalNAc
# Summary of the method: as §1
# [5] = biological target: Gal(a1-3)Gal(b1-3)[Fuc(a1-4)]GlcNAc(b1-2)Man(a1-3)[Gal(a1-3)Gal(b1-3)[Fuc(a1-4)]GlcNAc(b1-2)Man(a1-6)]Man(b1-4)GlcNAc(b1-4)GlcNAc
# Summary of the method: as §1
# Gal(a1-3)Gal(b1-4)Glc = biological target: Gal(a1-3)Gal(b1-4)Glc
# Summary of the method: as §1
# Gal(a1-3)Gal(b1-4)GlcNAc = biological target: Gal(a1-3)Gal(b1-4)GlcNAc
# Summary of the method: as §1
# [6] = biological target: Gal(a1-3)Gal(b1-4)GlcNAc(b1-2)Man
# Summary of the method: as §1
# [7] = biological target: Gal(a1-3)Gal(b1-4)GlcNAc(b1-2)Man(a1-3)[Gal(a1-3)Gal(b1-4)GlcNAc(b1-2)Man(a1-6)]Man(b1-4)GlcNAc(b1-4)GlcNAc
# Summary of the method: as §1
# [8] = biological target: Gal(a1-3)Gal(b1-4)GlcNAc(b1-3)GalNAc
# Summary of the method: as §1
# [9] = biological target: Gal(a1-3)Gal(b1-4)GlcNAc(b1-6)GalNAc
# Summary of the method: as §1
# [10] = biological target: Gal(a1-3)Gal(b1-4)[Fuc(a1-3)]GlcNAc
# Summary of the method: as §1
# [11] = biological target: Gal(a1-3)Gal(b1-4)[Fuc(a1-3)]GlcNAc(b1-2)Man(a1-3)[Gal(a1-3)Gal(b1-4)[Fuc(a1-3)]GlcNAc(b1-2)Man(a1-6)]Man(b1-4)GlcNAc(b1-4)GlcNAc
# Summary of the method: as §1
# Gal(a1-3)GalNAc = biological target: Gal(a1-3)GalNAc
# Summary of the method: as §1
# [12] = biological target: Gal(a1-3)[Gal(a1-4)]Gal(b1-4)GlcNAc
# Summary of the method: as §1
# [13] = biological target: Gal(a1-4)Gal(b1-3)GlcNAc(b1-2)Man(a1-3)[Gal(a1-4)Gal(b1-3)GlcNAc(b1-2)Man(a1-6)]Man(b1-4)GlcNAc(b1-4)GlcNAc
# Summary of the method: as §1
# Gal(a1-4)Gal(b1-4)Glc = biological target: Gal(a1-4)Gal(b1-4)Glc
# Summary of the method: as §1
# Gal(a1-4)Gal(b1-4)GlcNAc = biological target: Gal(a1-4)Gal(b1-4)GlcNAc
# Summary of the method: as §1
# [14] = biological target: Gal(a1-4)Gal(b1-4)GlcNAc(b1-2)Man(a1-3)[Gal(a1-4)Gal(b1-4)GlcNAc(b1-2)Man(a1-6)]Man(b1-4)GlcNAc(b1-4)GlcNAc
# Summary of the method: as §1
# [15] = biological target: Gal(a1-4)Gal(b1-4)GlcNAc(b1-3)Gal(b1-4)Glc
# Summary of the method: as §1
# Gal(a1-4)GlcNAc = biological target: Gal(a1-4)GlcNAc
# Summary of the method: as §1
# Gal(a1-6)Glc = biological target: Gal(a1-6)Glc
# Summary of the method: as §1
# Gal(b1-2)Gal = biological target: Gal(b1-2)Gal
# Summary of the method: as §1
# Gal(b1-3)Gal = biological target: Gal(b1-3)Gal
# Summary of the method: as §1
# Gal(b1-3)Gal(b1-4)GlcNAc = biological target: Gal(b1-3)Gal(b1-4)GlcNAc
# Summary of the method: as §1
# Gal(b1-3)GalNAc = biological target: Gal(b1-3)GalNAc
# Summary of the method: as §1
# [16] = biological target: Gal(b1-3)GalNAc(a1-3)[Fuc(a1-2)]Gal(b1-4)Glc
# Summary of the method: as §1
# [17] = biological target: Gal(b1-3)GalNAc(a1-3)[Fuc(a1-2)]Gal(b1-4)GlcNAc
# Summary of the method: as §1
# Gal(b1-3)GalNAc(b1-3)Gal = biological target: Gal(b1-3)GalNAc(b1-3)Gal
# Summary of the method: as §1
# [18] = biological target: Gal(b1-3)GalNAc(b1-3)Gal(a1-4)Gal(b1-4)Glc
# Summary of the method: as §1
# [19] = biological target: Gal(b1-3)GalNAc(b1-4)Gal(b1-4)Glc
# Summary of the method: as §1
# [20] = biological target: Gal(b1-3)GalNAc(b1-4)[Neu5Ac(a2-3)]Gal(b1-4)Glc
# Summary of the method: as §1
# Gal(b1-3)GlcNAc = biological target: Gal(b1-3)GlcNAc
# Summary of the method: as §1
# [21] = biological target: Gal(b1-3)GlcNAc(a1-3)Gal(b1-4)GlcNAc
# Summary of the method: as §1
# [22] = biological target: Gal(b1-3)GlcNAc(a1-6)Gal(b1-4)GlcNAc
# Summary of the method: as §1
# Gal(b1-3)GlcNAc(b1-2)Man = biological target: Gal(b1-3)GlcNAc(b1-2)Man
# Summary of the method: as §1
binder,measurement,setting,value
"MGL2 (Mus musculus), Q8JZN1 (protein) MTMRYENFQNLEREEKNQEMRNGDKKGGMESPKFALIPSQSFLWRILSWTHLLLFSLGLSLLLLVVISVIGSQNSQLRRDLGTLRAILDNTTSKIKAEFQSLDSRADNFEKGISSLKVDVEDHRQELQAGRDLSQKVTSLESTLEKREQALKTDLSDLTDHVQQLETDLKALTCQLANLKNNGSEVACCPLHWTEHEGSCYWFSESEKSWPEADKYCRLENSHLVVVNSLEEQNFLQNRLANVLSWMGLTDQNGPWRWVDGTDFDKGFKNWRPLQPDNWHGHMLGGGEDCAHFSYDGRWNDDVCQRHYHWICETELGKASSAHSPQLIASVP",glycan array binding signal (z-score),Gal(a1-3)Gal,-0.133
same,glycan array binding signal (z-score),Gal(a1-3)Gal(b1-3)GlcNAc,-0.249
same,glycan array binding signal (z-score),[1],-0.212
same,glycan array binding signal (z-score),[2],-0.113
same,glycan array binding signal (z-score),[3],-0.158
same,glycan array binding signal (z-score),[4],0.517
same,glycan array binding signal (z-score),[5],-0.193
same,glycan array binding signal (z-score),Gal(a1-3)Gal(b1-4)Glc,-0.21
same,glycan array binding signal (z-score),Gal(a1-3)Gal(b1-4)GlcNAc,-0.152
same,glycan array binding signal (z-score),[6],-0.03
same,glycan array binding signal (z-score),[7],-0.211
same,glycan array binding signal (z-score),[8],-0.192
same,glycan array binding signal (z-score),[9],0.838
same,glycan array binding signal (z-score),[10],-0.122
same,glycan array binding signal (z-score),[11],-0.009
same,glycan array binding signal (z-score),Gal(a1-3)GalNAc,-0.18
same,glycan array binding signal (z-score),[12],-0.187
same,glycan array binding signal (z-score),[13],-0.186
same,glycan array binding signal (z-score),Gal(a1-4)Gal(b1-4)Glc,-0.193
same,glycan array binding signal (z-score),Gal(a1-4)Gal(b1-4)GlcNAc,-0.137
same,glycan array binding signal (z-score),[14],-0.088
same,glycan array binding signal (z-score),[15],-0.1
same,glycan array binding signal (z-score),Gal(a1-4)GlcNAc,-0.186
same,glycan array binding signal (z-score),Gal(a1-6)Glc,-0.03
same,glycan array binding signal (z-score),Gal(b1-2)Gal,-0.147
same,glycan array binding signal (z-score),Gal(b1-3)Gal,-0.293
same,glycan array binding signal (z-score),Gal(b1-3)Gal(b1-4)GlcNAc,-0.137
same,glycan array binding signal (z-score),Gal(b1-3)GalNAc,-0.029
same,glycan array binding signal (z-score),[16],-0.217
same,glycan array binding signal (z-score),[17],-0.148
same,glycan array binding signal (z-score),Gal(b1-3)GalNAc(b1-3)Gal,0.153
same,glycan array binding signal (z-score),[18],0.04
same,glycan array binding signal (z-score),[19],-0.122
same,glycan array binding signal (z-score),[20],0.169
same,glycan array binding signal (z-score),Gal(b1-3)GlcNAc,-0.172
same,glycan array binding signal (z-score),[21],-0.311
same,glycan array binding signal (z-score),[22],0.067
same,glycan array binding signal (z-score),Gal(b1-3)GlcNAc(b1-2)Man,-0.185
